Source: PubChem BioAssay AID686970 (National Center for Advancing Translational Sciences (NCATS), 2013)
In all, about 360,000 compounds went through this assay and about 6,000 (1.7%) were called active. Inconclusive means that the source gave no clear call. Such entries were picked first, then a sample of the others. Calls follow the shape of the dose curve; as a rule, active = well fitted cell-killing curve with a large enough effect; inconclusive = small, poorly fitted or top-dose-only effect, or effect the other way; inactive = flat fitted curve, though single readings scatter. Potencies of inconclusive entries are left out as doubtful fits.

experiment: qHTS for induction of synthetic lethality in tumor cells producing 2HG: qHTS for the HT-1080-NT fibrosarcoma cell line; conditions: HT-1080-NT fibrosarcoma viability, CellTiter-Glo ATP luminescence, 48 h; activity, negative = less viability: at 46.1 µM (top of the series) unless noted;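 also: NT is the 2HG producing partner of a matched IDH1 knockdown line; nearly all actives have a fitted effect of over 55% in size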;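 as to activity, negative = less viability: 0% = DMSO-treated cells and -100% = media-only wells without cells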
Outline: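 HT-1080-NT fibrosarcoma cells (2HG-overproducing), 750 cells/well in RPMI with 5% FBS, dosed after 2 h and incubated 48 h at 37C. CellTiter-Glo luminescence normalized to DMSO and no-cell wells; concentration-response curves fitted and classed.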
Potency is read from the fitted curve at half-maximal effect; tags tell the direction and shape of the fitted curve.

| Compound | Potency | activity, negative = less viability |
| --- | --- | --- |
| COCCNc1nc(-c2cc(-c3ccc(Cl)cc3)on2)cc(C(C)C)n1 | inactive | – |
| O=C(c1ccc(-c2cccc(C(F)(F)F)c2)o1)N1CCCCCCC1 | inactive | – |
| Cc1ccsc1/C=N/NC(=O)CNC(=O)c1ccco1 | inconclusive [rising, single point] | – |
| CC(C)CC(O)(c1ccccc1)C(CN1CCOCC1)c1ccccc1 (stereo not given) | inconclusive [cytotoxic, single point] | – |
| CCc1nnc(N/N=C/c2ccc(O)c(OC)c2)n1N | inactive | – |
| COc1ccc(/C=C/C(=O)c2c(O)c(OC)c3occc3c2OC)cc1 | inconclusive [cytotoxic, single point] | – |
| Cc1ccc(CN2C(=O)C(CC(C)C)Nc3ncnc(N4CCN(c5ccccc5)CC4)c32)cc1 (stereo not given) | inactive | – |
| COc1ccccc1NS(=O)(=O)c1cccc(NS(=O)(=O)c2cc(C(=O)O)ccc2Cl)c1 | inactive | – |
| CC(=O)c1cccc(NC(=O)C2CCCN(S(=O)(=O)c3ccc(F)cc3)C2)c1 (stereo not given) | inactive | – |
| C=CCn1c(SCc2csc(-c3ccc(C)cc3)n2)nnc1-c1ccccc1OC | inactive | – |
| CN(C)C(CNC(=O)c1ccc2nccnc2c1)c1ccco1 (stereo not given) | inactive | – |
| COc1cc(/C=N/NC(=O)c2nnn(-c3nonc3N)c2C(C)C)ccc1OCc1ccc(F)cc1 | inconclusive [cytotoxic, partial curve] | – |
| COc1ccccc1NC(=O)c1ccc(S(=O)(=O)N2CCCC(C)C2)cc1 (stereo not given) | inactive | – |
| O=c1c(Cl)c(Cl)cnn1Cc1nnc(-c2ccccc2Br)o1 | active: 11.6 µM | – |
| Cc1ccccc1-c1cc2nc(NCc3ccc(N(C)C)cc3)n(C)c(=O)c2s1 | inconclusive [cytotoxic, partial curve, poor fit] | – |
| Nc1nc(SCC(=O)Nc2cc(-c3ccccc3)nn2-c2ccccc2)n[nH]1 | inconclusive [cytotoxic, single point] | – |
| COc1ccc(CCNC(=O)c2ccc(N(C)S(=O)(=O)c3ccc(C)cc3)cc2)cc1OC | inconclusive [cytotoxic, single point] | – |
| NC(Cc1ccc(C(F)(F)F)cc1)c1csc(NC(=O)Nc2ccccc2Oc2ccccc2)n1 (stereo not given) | inconclusive [cytotoxic, single point] | – |
| CC(C)NC1=C(Cl)C(=O)c2ccccc2C1=O | inconclusive [cytotoxic, single point] | – |
| O=C(Nc1ccc([N+](=O)[O-])cc1Br)c1cc2ccccc2nc1Cl | inconclusive [rising, partial curve] | – |
| O=C(CCl)Nc1ccc(-c2ccccc2)cc1 | active: 4.61 µM | – |
| O=C(/C=C/c1ccco1)Nc1ccc(Oc2ccccc2)cc1 | inconclusive [cytotoxic, single point] | – |
| OC[C@@H]1CN(CCN2CCOCC2)C[C@H](n2cnc3c(NC4CCCC4)ncnc32)O1 | inconclusive [rising, single point] | – |
| C=CCC[C@@H](Cc1ccc(F)cc1)C(=O)OC[C@@H](Cc1c[nH]c2ccccc12)NC(=O)[C@H](CC=C)CC(=O)N(CCO)Cc1ccccc1 | active: 16.4 µM | – |

| Compound | Potency | activity, negative = less viability |
| --- | --- | --- |
| Cc1c(C(=O)NCc2cccc([N+](=O)[O-])c2)sc(=O)n1Cc1ccc(C(C)C)cc1 | inactive | – |
| O=c1c2ccccc2sn1-c1cc(S(=O)(=O)N2CCOCC2)ccc1N1CCCC1 | inconclusive [cytotoxic, partial curve, poor fit] | – |
| CC(C)Cn1c(N)c(C(=O)NCC2CCCO2)c2nc3ccccc3nc21 (stereo not given) | inconclusive [cytotoxic, single point] | – |
| CCCCc1c(-c2cccc(Cl)c2)ncn1CCc1ccccc1OC | inconclusive [cytotoxic, single point] | – |
| CCOC(=O)CC(=O)CSc1nc2c(cc1C#N)CCC2 | inconclusive [cytotoxic, single point] | – |
| Cc1sc(-c2ccncc2)nc1OC(=O)c1ccc(F)cc1F | inactive | – |
| O=C(CNS(=O)(=O)c1ccc(F)cc1)N1CCN(c2ccc(F)cc2)CC1 | inactive | – |
| Clc1ccc(-n2nnnc2-c2cnc3ccccc3c2-c2ccccc2)cc1 | inconclusive [cytotoxic, single point] | – |
| Clc1ccc2nc(C3CCN(Cc4ccccc4)CC3)[nH]c2c1 | inconclusive [cytotoxic, single point] | – |
| NC(=O)c1ccsc1NC(=O)c1ccc([N+](=O)[O-])o1 | inconclusive [cytotoxic, single point] | – |
| COc1ccncc1-c1ccccc1C1=CC(=O)CC(C)(C)C1=O | inactive | – |
| N/C(=N\OC(=O)c1ccc(Cl)cc1[N+](=O)[O-])c1ccccn1 | inconclusive [cytotoxic, single point] | – |
| Cc1cc(C)nc(N2CCCC(C(=O)Nc3ccc4c(c3)OCCO4)C2)n1 (stereo not given) | inconclusive [cytotoxic, single point] | – |
| O=C(Nc1cccc(F)c1)c1cc(S(=O)(=O)NCCC2=CCCCC2)ccc1F | inconclusive [cytotoxic, single point] | – |
| COc1ccc(C(C)(O)c2nc(-c3cccc(F)c3)cs2)cc1 (stereo not given) | inconclusive [cytotoxic, single point] | – |
| OCCCn1c(CCCNc2nc(-c3cccc(Br)c3)cs2)nc2cc(Cl)c(N3CCCCC3)cc21 | active: 18.4 µM | – |
| C=CCn1c(C)c(C(C)=O)c(N2CCOCC2)nc1=S | inconclusive [rising, partial curve, poor fit] | – |
| Cc1ccc(/C(=N\O)c2oc3c(C)c4oc(=O)cc(C)c4cc3c2C)cc1 | inconclusive [cytotoxic, single point] | – |
| N#CC1=C(N)S[C@H](C(=O)C23CC4CC(CC(C4)C2)C3)[C@H]1c1ccncc1 | active: 23.1 µM | – |
| COC(=O)CS(=O)(=O)c1cccc2cccnc12 | inactive | – |
| Cc1cccc(C(=O)O/N=C(\N)Cc2ccc([N+](=O)[O-])cc2)c1 | inconclusive [cytotoxic, single point] | – |
| CCN(CC)c1ncnc2c1ncn2[C@H]1CN(Cc2ccc(F)cc2)C[C@@H](CO)O1 | inactive | – |
| COc1ccc(-c2cc(-c3nnc(COC(=O)c4ccc(O)cc4)o3)c3ccccc3n2)cc1OC | inconclusive [cytotoxic, single point] | – |
| O=C(NC(=S)Nc1ccc(CN2CCCCC2)cc1)c1cccc(OCc2ccccc2)c1 | inconclusive [cytotoxic, single point] | – |

| Compound | Potency | activity, negative = less viability |
| --- | --- | --- |
| CN(C(=O)c1ccc(NC(=O)c2ccco2)cc1)c1ccccc1 | inconclusive [cytotoxic, single point] | – |
| C=CS(=O)c1sc(Cl)c(N2CCOCC2)c1[N+](=O)[O-] (stereo not given) | inconclusive [cytotoxic, single point] | – |
| CCNC(=O)/C=C1\NC(C)(C)Cc2c1ccc1ccccc21 | inconclusive [cytotoxic, single point] | – |
| CCOc1ccc(CN2CCCC(CO)(Cc3ccc(F)cc3)C2)cc1 (stereo not given) | inconclusive [cytotoxic, single point] | – |
| COc1ccc(/C=C/C(=O)OCC(=O)c2ccc3c(c2)NC(=O)CO3)c(OC)c1 | inconclusive [cytotoxic, single point] | – |
| COc1ccc2c(c1)C(C)CC(C)(C)N2C(=O)CSc1nc2ccccc2s1 (stereo not given) | inconclusive [cytotoxic, single point] | – |
| COc1cc(OC)cc(C(=O)NC(=S)NCc2ccco2)c1 | active: 17.8 µM | – |
| COc1ccc(C(=O)c2sc(NC(C)C)nc2N)cc1OC | inconclusive [cytotoxic, single point] | – |
| O=C(COCc1cc(-c2ccc3c(c2)OCO3)on1)Nc1cccnc1 | active: 6.51 µM | – |
| COc1ccc(Cl)cc1-c1cc(C(=O)Nc2cc(OC)c(OC)c(OC)c2)[nH]n1 | inconclusive [cytotoxic, single point] | – |
| O=C(NCCS(=O)(=O)N1CCN(C(=O)c2ccco2)CC1)c1ccccc1 | inactive | – |
| O=c1cc(CCl)nc2scc(-c3ccccc3)n12 | inconclusive [cytotoxic, single point] | – |
| CC(C)C(=O)Nc1cccc(C(=O)Nc2cc([N+](=O)[O-])ccc2Cl)c1 | inactive | – |
| COCC(C)n1c(COc2ccccc2F)nnc1SCC(=O)c1c(N)n(C)c(=O)n(C)c1=O (stereo not given) | inactive | – |
| O=C(Nc1ccccn1)c1ccc(Br)s1 | inactive | – |
| O=C(c1cnc(Cl)c(Cl)c1)N1CCN(S(=O)(=O)c2cccs2)CC1 | inactive | – |
| COc1cc2cc(C(c3nnnn3C3CCCCC3)N(C)C3CCCCC3)c(=O)[nH]c2cc1OC (stereo not given) | inconclusive [cytotoxic, single point] | – |
| CCOC(=O)N1CCC(NC(=O)c2cc(C)c3c(C)nn(-c4ccccc4)c3n2)CC1 | – | inconclusive: 22.9% |
| O=C(NNS(=O)(=O)c1ccccc1Cl)C1COc2ccccc2O1 (stereo not given) | inconclusive [rising, partial curve] | – |
| COc1ccc(Nc2nc(N)c(C(=O)c3ccc(OC)cc3)s2)cc1 | inconclusive [cytotoxic, full curve] | – |
| CC1(C(=O)Nc2ccc3c(c2)OCO3)Cc2c(-c3ccc4c(c3)OCO4)ccnc2O1 (stereo not given) | inconclusive [cytotoxic, full curve] | – |
| COc1ccc(F)cc1C(=O)C1CCCN(Cc2cccn2-c2ccccn2)C1 (stereo not given) | inconclusive [cytotoxic, partial curve] | – |
